Results taken from the supplement of paper PMC3334620.
Whole data set: some 33,000 sequences, median “E-score (-0.5 to 0.5)” near -0.017, cut for the highest 2% near 0.3. The list shows a part of the results.

What follows are sequences tested against T1, Sut1 (UniProt P53032) (assay: PBM E-score (8-mer binding enrichment) (E-score (-0.5 to 0.5)); higher = stronger / more preferred TF binding; most listed sequences are background and not binding sites). Conditions: protein concentration: 200 nM; construct: GST-full length.
T1 sequence: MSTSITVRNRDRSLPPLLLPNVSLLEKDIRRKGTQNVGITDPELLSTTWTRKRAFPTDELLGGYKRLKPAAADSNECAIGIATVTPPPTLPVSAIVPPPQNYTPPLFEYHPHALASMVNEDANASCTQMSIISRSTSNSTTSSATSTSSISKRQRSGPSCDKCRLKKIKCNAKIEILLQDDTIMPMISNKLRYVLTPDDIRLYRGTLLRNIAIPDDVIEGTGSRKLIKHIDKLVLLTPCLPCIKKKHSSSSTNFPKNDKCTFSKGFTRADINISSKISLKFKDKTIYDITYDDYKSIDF
Summary of the method: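 Masliner-normalised scans of fluorescent anti-GST signal were the basis for scoring. That signal came from GST-tagged yeast transcription factors applied at about 100-200 nM to double-stranded universal all-10-mer Agilent arrays on fresh or once-stripped slides. Each ungapped eight-base word, pooled with its reverse complement, received an E-score from the Universal PBM Analysis Suite.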

| Sequence | PBM E-score |
| --- | --- |
| ACTGATAA | 0.255 |
| CCGACGTC | 0.106 |
| TAGAGATA | 0.106 |
| AACCCCGT | 0.283 |
| ACACTTAA | 0.17 |
| ATGTAGGG | -0.0734 |
| CTTGCTAC | -0.169 |
| ACTGGATA | 0.228 |
| AGTTAATG | 0.193 |
| ACGTGGTC | -0.214 |
| CCCACGCA | -0.19 |
| ATTAATCC | 0.153 |
| TCTGCTAA | -0.0838 |
| CATCGCGC | -0.113 |
| AATAATAG | 0.157 |
| GCCTACGC | -0.161 |
| CTCGCAAC | -0.0447 |
| CAAAAAAG | 0.105 |
| ACGTGGTA | -0.02 |
| AAAGTATG | 0.0484 |
| GATACCAA | 0.0117 |
| CTTGACGA | -0.15 |
| CGAGTCGA | -0.0446 |
| TCGTTTCA | 0.182 |
| CGGGAGAG | -0.0788 |

| Sequence | PBM E-score |
| --- | --- |
| ACATTGCC | -0.128 |
| GATACTCC | 0.148 |
| AGCGAATC | 0.078 |
| AAACAGTC | -0.179 |
| CAGTATAA | 0.179 |
| GCCTAGAC | -0.146 |
| CACGACAG | -0.038 |
| GCCTATTA | 0.0384 |
| CCCTGGAC | -0.176 |
| AATTCTCC | 0.244 |
| CATGAACA | 0.0319 |
| ACAGACGT | -0.113 |
| GCCACCCC | -0.354 |
| CATTGATA | 0.139 |
| TGAAGTCA | -0.161 |
| CACATATA | 0.07 |
| AATATTGG | 0.113 |
| CGGATGCC | 0.0144 |
| AGCCCGTC | -0.334 |
| AAAACGAA | 0.234 |
| AATGGTTG | 0.0702 |
| ATTCGCAC | 0.0557 |
| CGTTAGAC | -0.117 |
| AGTATGAG | -0.0279 |
| CAAACTCG | -0.013 |

| Sequence | PBM E-score |
| --- | --- |
| AGGCCGCG | -0.199 |
| GAACGGAA | 0.166 |
| CAAATGAG | 0.0597 |
| ACCGGAAT | 0.204 |
| GATAGAGA | 0.101 |
| AGGTGCGG | 0.0805 |
| TATATAGA | 0.278 |
| AAGACAGA | 0.146 |
| AAACATTT | 0.222 |
| GGTGCACA | -0.261 |
| ATCGAAAG | 0.113 |
| ACGTGGCG | -0.258 |
| ATGCTCTC | -0.0653 |
| CTTAAGGA | 0.0985 |
| GTTCGAAC | 0.187 |
| AGTCGAAG | -0.117 |
| CTACGGGA | -0.196 |
| ATACCCGC | -0.104 |
| ACCTCGCT | -0.0849 |
| AGGAACCC | -0.246 |
| CCTATTTA | 0.137 |
| ACCGCACT | -0.0137 |
| CAACAGGA | -0.18 |
| AATAACAG | 0.0803 |
| CTGACCCA | -0.26 |

| Sequence | PBM E-score |
| --- | --- |
| CGCTCTTA | 0.159 |
| GCGGCACC | -0.0756 |
| GCAAGTTA | 0.076 |
| GCTGCGAC | -0.199 |
| CCCGTTGC | -0.105 |
| TGTGCACA | -0.101 |
| CCGTTAGA | 0.251 |
| GCAGACGA | -0.0356 |
| ATACGACG | 0.151 |
| CAACGTAG | -0.081 |
| AAGTTAGC | 0.11 |
| ATATTCCG | 0.221 |
| CGCGGAGC | 0.26 |
| GGTTTGAA | 0.233 |
| CATAGTGC | 0.115 |
| GTCCGAAA | 0.447 |
| ACACCCGT | -0.212 |
| GGGCTATA | -0.139 |
| CGCAAGGA | -0.105 |
| AGTGTGTC | -0.0702 |
| ATTAGAGA | -0.0252 |
| CGAACAAG | -0.0249 |
| CCAGTCAG | -0.0847 |
| GCATGATA | 0.158 |
| ACCACTAA | 0.121 |

| Sequence | PBM E-score |
| --- | --- |
| AAGGTGGT | -0.0441 |
| ACGACAAT | 0.159 |
| AAGTGGGT | -0.0361 |
| ACATTCGC | -0.171 |
| AAGAGTAG | 0.0714 |
| AAGCGCGT | -0.167 |
| TGAGGAAA | 0.125 |
| CGTGAAGC | -0.224 |
| ACCAACGT | 0.00237 |
| ACGGCTAC | 0.0166 |
| CAGTTAAG | 0.0683 |
| CCGGACCC | 0.217 |
| ATGAAAAA | 0.255 |
| AAGGACGC | -0.0986 |
| ACCGGTCT | -0.115 |
| AGTTTCAG | 0.0405 |
| GAGATGCC | -0.0982 |
| ATCAATAC | 0.103 |
| GACAACGA | 0.104 |
| TAGGTCGA | -0.0499 |
| CCCTTATC | -0.0965 |
| GGCCCCTA | -0.332 |
| CTTTAGCC | 0.171 |
| CTGTGAAC | 0.0291 |
| CGTTCGTC | 0.00113 |

| Sequence | PBM E-score |
| --- | --- |
| CATCGTGA | -0.0974 |
| ATAGTGGA | 0.0992 |
| AGAGCTCC | 0.0174 |
| ACAAACGG | 0.128 |
| ATACAACA | 0.233 |
| GTAGGCTA | -0.101 |
| ATCGGCAG | -0.0399 |
| ACTCACTA | 0.0485 |
| GTAGATCA | 0.0626 |
| GAGATAAC | 0.132 |
| CGAGTAGC | -0.106 |
| GTAAGTAA | 0.185 |
| ATACAGAC | 0.203 |
| ATAGAGAC | -0.0323 |
| CGGCGACC | -0.101 |
| CTTATTCC | 0.138 |
| AGCTTCAC | -0.0282 |
| TACCTGGA | -0.0523 |
| TGAAGTAA | 0.0486 |
| AAAAGATC | -0.00606 |
| AGCGCCAC | -0.217 |
| ATCAGGAG | 0.044 |
| GAGCTCCC | -0.239 |
| ACTTAACC | 0.191 |
| ACGCGCTC | -0.0328 |

| Sequence | PBM E-score |
| --- | --- |
| CACCATGG | -0.222 |
| GTAATCTA | 0.234 |
| ATCTACAA | 0.128 |
| AAGGGGAC | -0.255 |
| ACATGCGC | -0.115 |
| AATAAATT | 0.237 |
| TGCTATAA | 0.144 |
| AAGTGGAC | 0.00685 |
| ATAGTGAG | -0.0473 |
| CACATGCA | -0.122 |
| ATCAGGTA | -0.0474 |
| AGCCTAAA | 0.121 |
| CCCTGTCG | -0.266 |
| AGCAACTG | -0.0572 |
| ACTAAAAT | 0.244 |
| TCGGACGA | 0.0715 |
| CTATTCCA | 0.125 |
| GTCCTGAA | -0.16 |
| ATGCGGCG | -0.233 |
| AATCCAGA | 0.163 |
| CAGAAGAA | 0.0645 |
| CTGGACAC | -0.227 |
